# Assay results published in PubChem BioAssay (NCI).
# Some structures have more than one record in an assay (separate samples or runs), and their calls can disagree.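 In brief: 96-well plates, 48 h treatment, single concentration, percent growth endpoint.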 Certain results were filed several times, with different values. This is not the full list of results. An entry can have further records. Rule for the calls: active = growth percent below 10; inactive = the rest. The screen tested this drug many times, at its own concentration, as given; one value stands for one run. Marks such as (2×) give the number of equal values in this list.
# Key:
# SK-MEL-28 melanoma = experiment: NCI-60 one-dose screen, 48 h (100 = growth as untreated, 0 = no growth, -100 = all killed)
# EKVX NSCLC = experiment: as above; details: 0.25 µM
smiles,measurement,setting,value
COc1cccc2c1C(=O)c1c(O)c3c(c(O)c1C2=O)C[C@@](O)(C(=O)CO)C[C@@H]3OC1CC(N)C(O)C(C)O1 (stereo not given in full),growth,"SK-MEL-28 melanoma; 0.25 µM, runs of 2022","active: -36.2%, -27.9%, -54.5% and inactive: 43, 45.2, 46.9, 20, 50.4, 34.1, 50.8, 52.3, 53, 64.7, 55.3, 56.6, 62.9, 55.2, 48.9, 73.6, 90.8, 64.2, 85.8, 85.1, 90, 57, 60.9, 51.9, 59.4, 55.9%"
same,growth,"SK-MEL-28 melanoma; 25 µM, runs of 1991","active: -96.5, -91.6, -85.2, -92.2 (2×), -98.4, -95.1, -90, -88, -89.6, -80.5, -86.2, -79.6, -96.6, -84.6, -66.7, -60.7, -87.6, -93.8%"
same,growth,"SK-MEL-28 melanoma; 25 µM, runs of 1992","active: -100 (8×), -75.1, -91.8, -79, -68.6, -96.9 (3×), -99, -94, -86.1, -87.4, -73.8, -94.4 (2×), -91.5, -80.7, -79.4, -95.1, -98, -96.2 (4×), -94.6, -70.2, -95.3 (2×), -90.1 (2×), -77.5, -84.7, -79.3, -79.2, -83.5, -77.6, -80.1, -81.2, -97.8, -97.9 (2×), -99.6 (2×), -99.5 (3×), -89.3, -93.2, -97.3, -98.3, -85.6, -91.4, -93.1, -82.9, -48.1, -95.9, -97.6 (2×), -97.7, -96.5 (3×), -95.5, -92.5, -84.2, -88.4, -87.6, -60.7, -99.4, -93.5 (2×), -98.1, -99.1, -96.1, -89.1, -77.3, -34.2, -65.1, -71.2, -96.6, -98.6, -81.8, -95.6, -92.4, -91.1, -46.9, -61.5, -53.5, -86.6, -89.7, -99.2, -97.5, -97, -69.7, -69.1, -93, -82, -51, -87.8, -56.6, -76.3, -95.8, -67.5, 2.75, -75.3, -71.4, -57.2, -62, -77, -65.8, -44.1%"
same,growth,"SK-MEL-28 melanoma; 25 µM, runs of 1993","active: -82.1, -93.8, -54.3, -18.5, -26, -96.7, -58.4, -67.1, -63, -61.9, -100 (2×), -97.9, -88.8, -85, -95.4, -47.4, -64.1, -57.8, -36.7, -40.4, -88.2, -60.7, -72.6, -78, -45.8, -80.2, -69.8, -83, -60.5, -72.2, -88.1, -80.7, -74.2, -54.5, -96.1, -71.4, -52, -99.7, -86.9, -84.2, -94.6, -80.8, -98.2, -97, -91, -98.8, -69.9, -94.4, -97.7%"
same,growth,"SK-MEL-28 melanoma; 25 µM, runs of 1994","active: -86.2, -94.8, -87.1, -93, -100 (2×), -73.4, -90 (2×), -66.4, -83.3, -48.6, -96.5, -84.9 (2×), -98.7, -97.9, -66, -74.2, -91.2, -84.5, -98.6, -89.1, -32.8, -81.5, -93.7, -65.9, -73.9, -80.7, -84.6, -63.4% and inactive: 84.2%, 102%"
same,growth,"SK-MEL-28 melanoma; 25 µM, runs of 1995","active: -23.6, -67.7 (2×), -99.6, -77.7 (2×), -99.8, -89.7, -76.8, -1.26, -93.4, -95.8, -80.8, -90.9, -100 (2×), -54.4, -74.2, -98.6, -94.8, -78.3, -97.4, -79.8 (2×), 2.19, -49.2, -87.3, -68.4, -91, -42.7, -97.5, -98, -70.1, -92.5%"
same,growth,"SK-MEL-28 melanoma; 25 µM, runs of 1996","active: -79, -77.5, -9.31, -37.4, -82.2, -77.1, -95.5, -67.9, -100, -78.2, -87.1, -88.7, -76.8, -75.8, -83.1, -88.9, -97.6, -81.8, -76.1, -84.7, -52, -93.3, -56.9, -42.6, -90.3 (2×), -67.7, -54.3, -38.9, -56, -57.6, -64.1, -74, -74.1, -41, -37.9, -60.3, -92.9, -56.1, -55.5, -82.1% and inactive: 60.2%, 12.6%"
same,growth,"SK-MEL-28 melanoma; 25 µM, runs of 1997","active: -81.7, -28, -56.1, -26.8, -32.2, -26.7, -75.6, -31.9, -98.7, -82.9, -48, -83.3, -78, -49.7, -90.5, -77.1, -48.7, -94.4, -71.5, -30.2, -44.4, -85, -94.7, -92.9, -64.6, -90.6, -73, -94.8, -74.8, -75.9, -87.9, -100, -99.3, -95, -55.4, -75.5, -98.2, -93.4, -65.6, -81.1, -82.4, -79%"
same,growth,"SK-MEL-28 melanoma; 25 µM, runs of 1998","active: -83.2, -84.9, -97.2, -45, -94.9, -29.4, -71.3, -64.2, -85, -92.7, -41.5, -56.6, -63.3, -65.2, 1.63, -90.6, -62.3, -75.3, -78.8, -57, -22, -78.1, -73.8% and inactive: 14.5%"
same,growth,"SK-MEL-28 melanoma; 25 µM, runs of 1999","active: -84.9, -54.5, -70.8, -83.9, -100, -42.1, 1.95, 0.622, -7.16, 7.08, 1.59% and inactive: 13.9%, 12.4%"
same,growth,"SK-MEL-28 melanoma; 25 µM, runs of 2000","active: 5.52, -100, -53, -85.2%"
same,growth,EKVX NSCLC; runs of 2006,"inactive: 66.6%, 73.2%"
same,growth,EKVX NSCLC; runs of 2007,"inactive: 74.3, 82.4, 70.1, 63.4, 83.1, 68.2, 71.4, 84.3, 90.4, 86.3, 77, 105, 96.8, 71.1, 97.7 (2×), 98.4, 94.7 (2×), 96.5, 102, 97.4, 107, 109, 104, 106, 93.9, 43.5, 94, 88.8, 92.6, 84.7, 100, 65.6, 87.5, 70, 90.1, 74.8, 90.3, 78, 82.8, 82.5%"
same,growth,EKVX NSCLC; runs of 2008,"inactive: 40.5, 50.1, 84.4, 72, 86.8, 79.7, 79.6, 86, 76.1, 81.4 (2×), 85.8, 87.3, 68.9, 71.6, 77.9, 63.8 (3×), 64.5 (2×), 60.7, 69.2 (2×), 74, 93.4, 72.5, 45.2, 74.8, 60.6, 62.6, 72.2, 71.8, 63.2, 53.1, 55, 81.2, 92.6, 70.9, 77.4, 81.9, 96.4, 60.5, 65.6, 79, 74.2, 63.5%"
same,growth,EKVX NSCLC; runs of 2009,"inactive: 58.9, 66.2 (3×), 59.8, 68.2, 72.9, 68.6, 74.9, 74 (2×), 75.5, 67.9, 55.7 (2×), 62.6, 58.1, 56.6, 65.6, 66.3 (2×), 62.1, 72, 63.2, 69.6, 85.5, 73.6, 82.9, 75.6, 74.3, 80.6, 70.3, 72.3 (2×), 98.3, 83.2, 72.1, 69.8, 77, 69.4, 60.9, 78.1 (2×), 85.8 (2×), 94.1, 95.3, 81.9, 83.7, 83, 77.7 (2×), 69.1, 86.3, 74.2, 60, 82.8, 98.5, 71.7, 62.5, 81.5, 65, 72.7, 86.4, 89, 90.9, 86.5%"
